Assay results as given in the supplement of paper PMC3334620.
The full ranking holds about 33,000 sequences; the median of “E-score (-0.5 to 0.5)” is about -0.056, and the highest 2% start at about 0.38. Some of the results follow.

Target: Stb4 (UniProt P50104)
Test: PBM E-score (8-mer binding enrichment) (E-score (-0.5 to 0.5)); higher = stronger / more preferred TF binding; most listed sequences are background and not binding sites
Conditions: protein concentration: 200 nM; construct: GST-DNA-binding domain
Summary of the method: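 GST-tagged yeast TFs (full-length or DNA-binding domain) were made by PURExpress in vitro transcription/translation and applied at about 100-200 nM to universal all-10-mer Agilent arrays. The arrays were made double-stranded by primer extension, on fresh or once-stripped slides. Bound protein was detected with fluorescent anti-GST, and scans were normalised with masliner. Each ungapped eight-base word, pooled with its reverse complement, received an E-score (modified Wilcoxon-Mann-Whitney statistic) from the Universal PBM Analysis Suite.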

Row | Sequence | PBM E-score
1 | CGCATGCC | 0.224
2 | ACCTGCGG | 0.0918
3 | ATGGCTCA | -0.316
4 | AATGTCCT | -0.127
5 | AGCTGAAA | 0.0434
6 | AGTCGGCG | 0.117
7 | GAAGTTTA | 0.138
8 | ACTCGTGC | -0.0301
9 | GAGGGATC | 0.116
10 | GACGACTC | 0.115
11 | CCCAACGA | -0.114
12 | ACCTTAGT | -0.164
13 | CCAACGCA | -0.109
14 | TAAGCAGA | -0.0808
15 | CGACATAA | 0.0898
16 | GAAGTTGC | -0.134
17 | ACCGATGG | 0.176
18 | AGCTATAC | -0.196
19 | CTCGCAGC | -0.0635
20 | GTAGGCCA | -0.18
21 | CAGTGGCG | -0.226
22 | AGATGCTC | 0.0615
23 | ACGTGTTG | -0.131
24 | CGTCCCAG | -0.196
25 | AGGGTGGC | -0.156

Row | Sequence | PBM E-score
26 | CGCTCGAG | -0.154
27 | GCGTCCCC | -0.0409
28 | CATGGTGA | -0.0869
29 | ACTCGCCT | -0.213
30 | CTACTCCA | -0.257
31 | GACTGAGA | -0.153
32 | ACCGACCT | 0.176
33 | CTCCACGC | -0.0795
34 | CCCTAGTA | -0.0177
35 | GATAACAA | 0.0225
36 | GATGGCCC | 0.0557
37 | GAAGACTA | -0.0159
38 | GCTACTTA | -0.315
39 | ATGGCGTA | -0.0425
40 | ACTAACGG | 0.163
41 | CCAATGTC | -0.188
42 | ACCGGACC | 0.266
43 | CATGGCTC | -0.0721
44 | GGTCAAAA | -0.0358
45 | CCCAGGGC | -0.196
46 | CATGTGAA | -0.0841
47 | CTACCTAA | -0.158
48 | GGAATGTA | 0.229
49 | GACTCTGC | -0.0834
50 | AAAACTAC | 0.0922

Row | Sequence | PBM E-score
51 | AGCTGGAC | -0.225
52 | GGGCCAAC | 0.0192
53 | CTTTGGCA | -0.042
54 | AAAAGGAA | 0.107
55 | AACAGGAT | -0.283
56 | ACGGACAT | 0.131
57 | AGCAGACA | -0.0876
58 | CACAAAGG | -0.0743
59 | CCACAGCC | 0.0742
60 | CCCAGTCC | -0.0011
61 | CCCACTGA | -0.148
62 | CTCCAGAG | -0.019
63 | GTGACATA | -0.0862
64 | AGGACTGG | -0.265
65 | CCTCCTAG | -0.234
66 | GGGTGTAA | 0.0872
67 | AATTCAAA | -0.287
68 | ACCAAGGG | -0.185
69 | ATAGTCAA | -0.111
70 | GGTCGCGA | 0.0519
71 | AGGGTGCC | -0.214
72 | GTATCGGA | 0.39
73 | ACACGAAT | -0.00722
74 | CAGCTCGG | 0.392
75 | AACCTAAT | -0.0366

Row | Sequence | PBM E-score
76 | AAGCCAGA | 0.0259
77 | AATATGAA | -0.111
78 | CTGCCTGA | -0.0948
79 | ACTACCGA | 0.349
80 | ATTCCGCG | 0.271
81 | ATCACAAT | -0.0437
82 | CACGGAAA | 0.352
83 | TAGATGGA | -0.167
84 | GAGTCCGC | 0.122
85 | GTAGAATA | -0.0899
86 | GGACGCAC | -0.0598
87 | CTAGCAAC | -0.0195
88 | ACGTGACG | -0.0361
89 | TCCACGCA | -0.0587
90 | AAATAAGG | -0.00136
91 | AGCTCCAC | 0.00365
92 | ACACGATG | -0.189
93 | AGGAAGAC | -0.3
94 | GCATTAAC | 0.143
95 | ATCGGCGC | 0.205
96 | ACGCCTCA | -0.25
97 | GGTATAAC | 0.00702
98 | GCGCCCGA | 0.261
99 | AGTTTTAG | -0.183
100 | GTTACTTA | 0.0445

Row | Sequence | PBM E-score
101 | AAGACGCA | -0.102
102 | CACCAGAG | -0.282
103 | TAGCGACA | -0.154
104 | ATCCTAAA | -0.193
105 | GGACATGA | 0.144
106 | ACTGACAA | -0.147
107 | GCAAGTCA | -0.0316
108 | ACAACTAA | -0.126
109 | ACCTAATA | 0.00879
110 | TCGGGGCA | 0.226
111 | TCATCGGA | 0.403
112 | CCAGAAGG | -0.109
113 | GTGCTTAA | -0.0757
114 | TAGGATAA | -0.0915
115 | CGCTAACC | 0.0933
116 | ATCGTCAC | -0.193
117 | GACCTCCC | 0.0971
118 | ACATTTTC | 0.117
119 | GTGTAATA | -0.0136
120 | ATGGCCAA | -0.131
121 | GCGGGCCA | 0.00921
122 | CTCTTGTC | -0.0749
123 | AGATTTAG | -0.0774
124 | TACATTAA | -0.0317
125 | AATTATCC | 0.268

Row | Sequence | PBM E-score
126 | ACATGGTA | -0.0896
127 | CAAGGGCA | -0.139
128 | ACGCCATC | 0.0216
129 | ATGAGACC | -0.0804
130 | ATCAAAGG | -0.0908
131 | CCACCGAA | 0.104
132 | ATTCATGA | -0.244
133 | GTACACAA | -0.091
134 | GTACAACA | -0.0463
135 | ATACATGC | -0.115
136 | CGCGTTCA | 0.0551
137 | CATGCCGG | 0.239
138 | GCAGGAAC | -0.0981
139 | CTATGACA | -0.0513
140 | CGTCTTGA | -0.00666
141 | ACGATGGC | -0.196
142 | AACAGAAA | -0.122
143 | TACTGGGA | -0.119
144 | AGCGAGGG | -0.234
145 | AGTGCGAC | 0.0915
146 | CGAAAGAA | 0.0769
147 | ACCCGAGG | 0.427
148 | TGTGTTAA | -0.207
149 | ATGGTTTA | 0.193
150 | CCATTATA | -0.00472

Row | Sequence | PBM E-score
151 | CTCGTTGC | -0.194
152 | ACATTTAT | -0.116
153 | GCTCTTTA | -0.0604
154 | ACTGAGAA | -0.0509
155 | GCAACCCC | -0.00033
156 | ACGGACTC | -0.0191
157 | CGGGATTA | 0.365
158 | ATAAATGG | -0.0964
159 | ATGACGAG | -0.104
160 | AGCATTAG | -0.0943
161 | ATCGTTGA | -0.09
162 | ATCGTCAA | -0.0823
163 | CACCTTAG | -0.135
164 | ACCCACGT | -0.135
165 | CTCTCTGC | -0.198
166 | AAACGGTA | 0.13
167 | CGGACAAG | 0.138
168 | CACTCCCG | 0.335
169 | CTAAGAAG | -0.13
170 | GAGCGACC | -0.138
171 | CAAACCCA | -0.00457
172 | CGTATCCA | -0.124
